From patent US20250368649A1, “TETRAHYDROPYRIDOPYRIMIDINE PAN-KRAS INHIBITORS” (Mirati Therapeutics, Inc., priority 2022, published 2025) come the findings set out here.

For assay [1], the target named is KRas G12A (Homo sapiens, UniProt P01116, G12A). The class given is binding. As to conditions: TR-FRET displacement, read-out: Binding to KRas (IC50 nM) G12A.
Assay [2] concerns the target KRas G13D (Homo sapiens, UniProt P01116, G13D). The assay is classed as binding. As to conditions: TR-FRET displacement, read-out: Binding to KRas (IC50 nM) G13D.
In assay [3] the test system is H358 cells. Put plainly: Inhibition of KRas-mediated phosphorylation of ERK (Cisbio HTRF pERK), H358 cells. As to conditions: Homo sapiens, NCI-H358, 3 h, 3 hr compound incubation, Cisbio pERK HTRF. The class given is cell-based. For orientation: TR-FRET usually uses a lanthanide donor and a delayed reading to cut background.
The test system of assay [4] is H460 cells. Kind of assay: Inhibition of KRas-mediated phosphorylation of ERK (Cisbio HTRF pERK), H460 cells. The assay is classed as cell-based. The conditions noted are these: Homo sapiens, NCI-H460, 3 h, 3 hr compound incubation, Cisbio pERK HTRF.
Assay [5] addresses KRas G12S (Homo sapiens, UniProt P01116, G12S). The class given is binding. The conditions noted are these: TR-FRET displacement, read-out: Binding to KRas (IC50 nM) G12S.
Assay [6] addresses KRas G12C (Homo sapiens, UniProt P01116, G12C). The class given is binding. As to conditions: TR-FRET displacement, read-out: Binding to KRas (IC50 nM) G12C.
The subject of assay [7] is H727 cells. Put plainly: Inhibition of KRas-mediated phosphorylation of ERK (Cisbio HTRF pERK), H727 cells. The assay is classed as cell-based. The conditions noted are these: Homo sapiens, NCI-H727, 3 h, 3 hr compound incubation, Cisbio pERK HTRF.
Assay [8] addresses KRas WT (Homo sapiens, UniProt P01116). Put plainly: KRas binding assay (TR-FRET displacement), KRas WT. The conditions noted are these: TR-FRET displacement.
The subject of assay [9] is A549 cells. Put plainly: Inhibition of KRas-mediated phosphorylation of ERK (Cisbio HTRF pERK), A549 cells. The assay is classed as cell-based. As to conditions: Homo sapiens, A549, 3 h, 3 hr compound incubation, Cisbio pERK HTRF.
Assay [10] addresses KRas Q61H (Homo sapiens, UniProt P01116, Q61H). Kind of assay: KRas binding assay (TR-FRET displacement), KRas Q61H. The conditions noted are these: TR-FRET displacement.
The test system of assay [11] is HCT116 cells. Kind of assay: Inhibition of KRas-mediated phosphorylation of ERK (Cisbio HTRF pERK), HCT116 cells. The class given is cell-based. The conditions noted are these: Homo sapiens, HCT-116, 3 h, 3 hr compound incubation, Cisbio pERK HTRF.
For assay [12], the system named is MKN1 cells. Kind of assay: Inhibition of KRas-mediated phosphorylation of ERK (Cisbio HTRF pERK), MKN1 cells. The assay is classed as cell-based. The conditions noted are these: Homo sapiens, MKN-1, 3 hour compound incubation. Put shortly: (§1)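 On the first day, plate 6,000 cells into each well in RPMI medium with 10% fetal bovine serum.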
In assay [13] the test system is PSN1 cells. Kind of assay: Inhibition of KRas-mediated phosphorylation of ERK (Cisbio HTRF pERK), PSN1 cells. The assay is classed as cell-based. The conditions noted are these: Homo sapiens, PSN1, 3 h, 3 hour compound incubation, Cisbio pERK HTRF. Put shortly:
as §1

Assay [14] concerns ASPC1 cells. Kind of assay: Inhibition of KRas-mediated phosphorylation of ERK (Cisbio HTRF pERK), ASPC1 cells. The conditions noted are these: Homo sapiens, ASPC1, 3 h, AsPC-1 cells; 3 hr compound incubation; Cisbio pERK HTRF. The class given is cell-based.

A word on the IC50: it is the concentration at which inhibition is half-maximal. With `O=S1(=O)NCC2(CCCN(c3nc(OC[C@@]45CCCN4C[C@H](F)C5)nc4c3CCN(c3c5ccccc5cc5[nH]ncc35)C4)C2)N1` (stereo partly drawn) [Example 612, 7-(7-(1H-benzo[f]indazol-4-yl)-2-(((2R,7aS)-2-fluorotetrahydro-1H-pyrrolizin-7a(5H)-yl)methoxy)-5,6,7,8-tetrahydropyrido[3,4-d]pyrimidin-4-yl)-2-thia-1,3,7-triazaspiro[4.5]decane 2,2-dioxide], the half-maximal inhibitory concentration (IC50) in assay [1] is less than 2 nM; in assay [2] it was less than 2 nM; in assay [3], 16 nM; in assay [4], 129 nM; in assay [5], less than 2 nM; in assay [6], less than 2 nM. In addition, the IC50 was determined as 41 nM in assay [7]; 8 nM in assay [8]; 83 nM in [9]; 10 nM in assay [10]; 92 nM in assay [11]; 19.4 nM in assay [12]. The IC50 in assay [13] came to 1140 nM; in assay [14], 58 nM.
